Drawing on the RNAGym collection of RNA variant scans (doi:10.1093/nar/gkz1192), this text covers self-cleavage for 68 variants.

Read counts are not given, so values of variants with three or more changes are uncertain.

The labels stand for the following.
B1: CPEB3 Ribozyme (parent)
chain: UAACAGGGGGCCACAGCAGAAGCGUUCACGUCGCAGCCCCUGUCAGAUUCUGGUGAAUCUGCGAAUUCUGCUGUAUAUCUC

In the data set the parent is B1. The data set can be described thus: self-cleavage, relative activity (ratio to wild type); higher = more cleavage; in vitro, sequencing. The essentials:
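For each CPEB3 ribozyme variant, relative activity is its cleaved/total read fraction divided by the unmutated ribozyme's. Barcoded error-prone PCR libraries were transcribed by T7 RNA polymerase (5 hours, 37°C) and held in DNase I for 15 min before an EDTA stop, with cleavage occurring throughout. Template-switching reverse transcription and Illumina sequencing were used to read the RNAs. A 5-read minimum applied, and results are the mean of three batches.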
For the variant UAACAGGGGGCCACAGCAGAAGCGUUCACGUCGCAGCCCCUGUCAGAUUCCGGUGAAUCUGCGAAUUUCGCUGUAUAUCUC, the self-cleavage is 0.52.
The value for UAACAGGGGGCCACAGCAGAAGCGUUCACGUCGCAGCCCCUGUCAGAUUCCGGUGCAUCUGCGAAUUCUGCUGUAUACCUC was 0.25.
The value for UAACAGGGGGCCACAGCAGAAGCGUUCACGUCGCAGCCCCUGUCAGAUUCAGGUGAAUCUGCGAAUUCUGCCGUAAAUCUC was 1.3; that for UAACAGGGGGCCACAGCAGAAGCGUUCACGUCGCAGCCCCUGUCAGAUUCAGGUGAACCUGCGAAUUCUGCUGUAUAUUUC was 0.3.
As for UAACAGGGGGCCACAGCAGAAGCGUUCACGUCGCAGCCCCUGUCAGAUUCAGGUGAAUCUGCGGAUCCUGCGGUAUAUCUC, the self-cleavage was determined as 0.28.
With UAACAGGGGGCCACAGCAGAAGCGUUCACGUCGCAGCCCCUGUCAGAUUCCGGUGAGCCUGCGAAUUCUGCUGUAUAUCUC, the self-cleavage was found to be 0.37.
Consider UAACAGGGGGCCACAGCAGAAGCGUUCACGUCGCAGCCCCUGUCAGAUUCCGGUGUAUCUGCGAAUUCUGCUGUACACCUC, for which the self-cleavage is 0.45.
The same measure for UAACAGGGGGCCACAGCAGAAGCGUUCACGUCGCAGCCCCUGUCAGAUUCCGGUGAGUCUGCGAAUUCUGCAGUAUAACCC: 0.39.
UAACAGGGGGCCACAGCAGAAGCGUUCACGUCGCAGCCCCUGUCAGAUUCAGGAGAAUCUGCGAAUUCUGCUGUAAAUCUC: the self-cleavage turned out to be 1.09.
UAACAGGGGGCCACAGCAGAAGCGUUCACGUCGCAGCCCCUGUCAGAUUCAGGUGAAUCUGCGAAUCCUGCUGUCUAUCUC: the self-cleavage came to 0.57.
The value for UAACAGGGGGCCACAGCAGAAGCGUUCACGUCGCAGCCCCUGUCAGAUUCCGGUGAGUCUGCGAAUUCAGCUGUAUUCCUC was 0.62; that for UAACAGGGGGCCACAGCAGAAGCGUUCACGUCGCAGCCCCUGUCAGAUUCAGGUGAUUCUGCGAAUUCUGCAGUAUAUCUC was 0.51; that for UAACAGGGGGCCACAGCAGAAGCGUUCACGUCGCAGCCCCUGUCAGAUUCCGGUGGAUCUGCGAAUUCUGCCGUAUAUCUC was 1.02.
The value for UAACAGGGGGCCACAGCAGAAGCGUUCACGUCGCAGCCCCUGUCAGAUUCAGGGGGAUCUGCGAAUUCUGCAGUAUAUCUC was 0.2; that for UAACAGGGGGCCACAGCAGAAGCGUUCACGUCGCAGCCCCUGUCAGAUUCAGGUGAAUCUACGAAUCCUGCAGUAUAUCUC was 0.44.
UAACAGGGGGCCACAGCAGAAGCGUUCACGUCGCAGCCCCUGUCAGAUUCCGGUGAAUCUGCGAGUUCUGCUGUAUUUCUC: the self-cleavage was 0.39.
The same measure for UAACAGGGGGCCACAGCAGAAGCGUUCACGUCGCAGCCCCUGUCAGAUUCCGGUGAGUCUGCGAAUUCUGCUGUAUAGCCC: 0.75; for UAACAGGGGGCCACAGCAGAAGCGUUCACGUCGCAGCCCCUGUCAGAUUCAGGUGAGUCUGCGAAUUCUGCUGUUUAUCUC: 0.69.
With UAACAGGGGGCCACAGCAGAAGCGUUCACGUCGCAGCCCCUGUCAGAUUCCGGUGAGUCUGCGAAUACUGCUGUAUAUCUC, the self-cleavage stood at 0.5.
The value for UAACAGGGGGCCACAGCAGAAGCGUUCACGUCGCAGCCCCUGUCAGAUUCCGGUGGAUCUGCGAAUGCUGCUGUAUAUCUC was 0.33; that for UAACAGGGGGCCACAGCAGAAGCGUUCACGUCGCAGCCCCUGUCAGAUUCCGGUGAAUCUGCGGAUUCUGCUGUAAAUCUC was 1.13.
For UAACAGGGGGCCACAGCAGAAGCGUUCACGUCGCAGCCCCUGUCAGAUUCAGGUGAAUCAGCGAAUUCUGCUGUAUAUUUC, the self-cleavage came to 0.48.
Regarding UAACAGGGGGCCACAGCAGAAGCGUUCACGUCGCAGCCCCUGUCAGAUUCAGGUGAGUCUGCGAAUUUUGUUGUAUACCUC, the self-cleavage was determined as 0.31.
As for UAACAGGGGGCCACAGCAGAAGCGUUCACGUCGCAGCCCCUGUCAGAUUCAGGUGAAUUUGCGAAUUCUGCCGUAUACCUC, the self-cleavage came out at 1.07.
UAACAGGGGGCCACAGCAGAAGCGUUCACGUCGCAGCCCCUGUCAGAUUCCGGUGAAUCUGCGUAUUCUGCUGUAUAACCC: the self-cleavage came to 0.52.
For the variant UAACAGGGGGCCACAGCAGAAGCGUUCACGUCGCAGCCCCUGUCAGAUUCAGGUGAAUCUGCGGAUUCUGCUGUAUACCUC, the self-cleavage came out at 0.84.
The same measure for UAACAGGGGGCCACAGCAGAAGCGUUCACGUCGCAGCCCCUGUCAGAUUCAGGUGAAUCUGUGAAUCCUGCUGCAUAUCUC: 0.37.
With UAACAGGGGGCCACAGCAGAAGCGUUCACGUCGCAGCCCCUGUCAGAUUCAGGUGUAUCUGCGAGUUCUGCUGUAUAGCUC, the self-cleavage stood at 0.17.
The same measure for UAACAGGGGGCCACAGCAGAAGCGUUCACGUCGCAGCCCCUGUCAGAUUCAGGCGAAUCUGCGAAUUCUGCUGUUUAUCUC: 1.2; for UAACAGGGGGCCACAGCAGAAGCGUUCACGUCGCAGCCCCUGUCAGAUUCAGGUGAAUCCGCGAAUUCUGCUGGAUAUCCC: 0.72.
With UAACAGGGGGCCACAGCAGAAGCGUUCACGUCGCAGCCCCUGUCAGAUUCAGGUUAACCUGCGGAUUCUGCUGUAUAUCCC, the self-cleavage stood at 0.16.
The value for UAACAGGGGGCCACAGCAGAAGCGUUCACGUCGCAGCCCCUGUCAGAUUCAGGUGAAUCUGCGGAUUCAGCUGUAUAUCUC was 0.28; that for UAACAGGGGGCCACAGCAGAAGCGUUCACGUCGCAGCCCCUGUCAGAUUCAGGGGAAUCUGCGAAUCCUGCUGUAUAUCUC was 0.35.
The same measure for UAACAGGGGGCCACAGCAGAAGCGUUCACGUCGCAGCCCCUGUCAGAUUCCGGUGGACCUGCGUAUUCUGCUGUAUAUCUC: 0.18; for UAACAGGGGGCCACAGCAGAAGCGUUCACGUCGCAGCCCCUGUCAGAUUCCGGUGGGUCUGCGAAUUCCGCUGUAUAUCUC: 0.22.
As for UAACAGGGGGCCACAGCAGAAGCGUUCACGUCGCAGCCCCUGUCAGAUUCCGGUGAAUCUGCGACUCCUGCUGUAUAUCUC, the self-cleavage amounted to 0.35.
Turning to UAACAGGGGGCCACAGCAGAAGCGUUCACGUCGCAGCCCCUGUCAGAUUCAGGUGAAUCUGCGAUUUCAGCUGUAUAUCUC, the self-cleavage is 0.47.
The same measure for UAACAGGGGGCCACAGCAGAAGCGUUCACGUCGCAGCCCCUGUCAGAUUCAGGUGAAUCUGCGAAUUCUGCCGUAUGUCUC: 1.26.
The value for UAACAGGGGGCCACAGCAGAAGCGUUCACGUCGCAGCCCCUGUCAGAUUCAGGCGGAUCUGCGAAUCCUGCUGUAUGUCUC was 0.22; that for UAACAGGGGGCCACAGCAGAAGCGUUCACGUCGCAGCCCCUGUCAGAUUCAGGUGAAUCUGCGAAUUCUGCCGUAUAUCAC was 1.29; that for UAACAGGGGGCCACAGCAGAAGCGUUCACGUCGCAGCCCCUGUCAGAUUCCGGUGAGUCUGCGAAUUCUGCUGUAUCCCUC was 0.75.
The value for UAACAGGGGGCCACAGCAGAAGCGUUCACGUCGCAGCCCCUGUCAGAUUCCGGUGAAUCUGCGGAUUCUGCUGUAUACCUC was 0.71; that for UAACAGGGGGCCACAGCAGAAGCGUUCACGUCGCAGCCCCUGUCAGAUUCAGGCGAAUCCGCGAAUUCUGCUGUAUAUCUC was 0.93; that for UAACAGGGGGCCACAGCAGAAGCGUUCACGUCGCAGCCCCUGUCAGAUUCCGGUGAGUCUGCGAAUUCUGCUGUAUGUCUC was 0.55.
In the case of UAACAGGGGGCCACAGCAGAAGCGUUCACGUCGCAGCCCCUGUCAGAUUCCGGUGUGUCUGCGAAUUCUGCUGUAUAUCCC, the self-cleavage is 0.29.
The value for UAACAGGGGGCCACAGCAGAAGCGUUCACGUCGCAGCCCCUGUCAGAUUCCGGUGAAUCUGCGAGUUCUGCUGUUUAUCUC was 0.65; that for UAACAGGGGGCCACAGCAGAAGCGUUCACGUCGCAGCCCCUGUCAGAUUCAGGUGAAUCAGCGAAUUCUGCUGCGUAUCUC was 0.86; that for UAACAGGGGGCCACAGCAGAAGCGUUCACGUCGCAGCCCCUGUCAGAUUCAGGUGAAUCCGCGAAAUCUGCUGUAUAUCUC was 0.26.
The value for UAACAGGGGGCCACAGCAGAAGCGUUCACGUCGCAGCCCCUGUCAGAUUCAGGUGAAUCUGCGUAUUCUGCCGCAUAUCUC was 0.74; that for UAACAGGGGGCCACAGCAGAAGCGUUCACGUCGCAGCCCCUGUCAGAUUCCGGUGAGUCUGCGAACUCUGCUGUAUAUCUC was 0.47; that for UAACAGGGGGCCACAGCAGAAGCGUUCACGUCGCAGCCCCUGUCAGAUUCAGGUGAAUCUGCGUAUUCUGCUGUAUAGCUC was 0.29.
The same measure for UAACAGGGGGCCACAGCAGAAGCGUUCACGUCGCAGCCCCUGUCAGAUUCCGGUGGAUCUGCGGACUCUGCUAUAUACCUC: 0.41; for UAACAGGGGGCCACAGCAGAAGCGUUCACGUCGCAGCCCCUGUCAGAUUCAGGUAAAUCUGCGUACUCUGCUGUAUAUCUC: 0.51.
Consider UAACAGGGGGCCACAGCAGAAGCGUUCACGUCGCAGCCCCUGUCAGAUUCCAGAGAAUCUGCGAAUUCUGCUGUAUAUCUC, for which the self-cleavage is 1.04.
The value for UAACAGGGGGCCACAGCAGAAGCGUUCACGUCGCAGCCCCUGUCAGAUUCAGGUGAAGCUGCGAAUUCUGCAGUAUACCUC was 0.22; that for UAACAGGGGGCCACAGCAGAAGCGUUCACGUCGCAGCCCCUGUCAGAUUCAGGCGAAUCUGCGAAUUCUGCUGUAUGUCUC was 1.09.
As to UAACAGGGGGCCACAGCAGAAGCGUUCACGUCGCAGCCCCUGUCAGAUUCAGGUGAAUCUGCGAAUUACGCUGUAUAUCUC, the self-cleavage was determined as 0.34.
Turning to UAACAGGGGGCCACAGCAGAAGCGUUCACGUCGCAGCCCCUGUCAGAUUCCAGUGAAUCUGCGAACUCCGCUGUAUAUCUC, the self-cleavage was 0.42.
The same measure for UAACAGGGGGCCACAGCAGAAGCGUUCACGUCGCAGCCCCUGUCAGAUUCAGGUGAACCUGCGAAUGCUGCUGUAUAUCUC: 0.27.
The same measure for UAACAGGGGGCCACAGCAGAAGCGUUCACGUCGCAGCCCCUGUCAGAUUCAGGUGAAUCUGUGAAUUCUGCUGUAUACCUC: 0.24; for UAACAGGGGGCCACAGCAGAAGCGUUCACGUCGCAGCCCCUGUCAGAUUCAGGUGAACCUGCGAAUUCCGCUGUAUAUCUC: 0.56; for UAACAGGGGGCCACAGCAGAAGCGUUCACGUCGCAGCCCCUGUCAGAUUCAGGAGAAUCUGCGAAUUCUGCUGCAUAUCUC: 1.19.
The value for UAACAGGGGGCCACAGCAGAAGCGUUCACGUCGCAGCCCCUGUCAGAUUCAGGUGAAUCUGCGUAUCCUGCUGUAUAUCUC was 0.31; that for UAACAGGGGGCCACAGCAGAAGCGUUCACGUCGCAGCCCCUGUCAGAUUCAGGUGAAUUUGCGAACUCUGCUGCAUAUCUC was 0; that for UAACAGGGGGCCACAGCAGAAGCGUUCACGUCGCAGCCCCUGUCAGAUUCAGAUGAAUCUGCGAAUUCAGCAGUAUAUCUC was 0.43.
UAACAGGGGGCCACAGCAGAAGCGUUCACGUCGCAGCCCCUGUCAGAUUCCGGUGAAUCUGCGGAUCCUGCUGUAUAUCUC: the self-cleavage was 0.31.
The same measure for UAACAGGGGGCCACAGCAGAAGCGUUCACGUCGCAGCCCCUGUCAGAUUCAGGUGAAUCUGCGAAAUCUGCUGCAUAUCUC: 0.89.
As for UAACAGGGGGCCACAGCAGAAGCGUUCACGUCGCAGCCCCUGUCAGAUUCAGGUGAAACUGCGUAUUCUGCUGUAUAUCUC, the self-cleavage was 0.15.
